Patent publication US8975247B2, “Methods and compositions of treating a flaviviridae family viral infection” (priority 2009, dated 2015)

Legend:
Huh7.5 cells = format: cell-based; conditions: human, 3 days
[1] = test system: HCV genotype 2a infectious clone; assay: HCV genotype 2a infectious clone assay (Renilla luciferase); format: cell-based; conditions: for activity at 5 µM: Hepatitis C virus, read-out: 2a % activity @ 5 μM, % replication activity of control remaining at 5 μM test compound

| SMILES | 2a Cell Viability @ 5 μM (Huh7.5 cells) | 2a Cell Viability @ 10 μM (Huh7.5 cells) | activity at 5 µM [1] [%] | 2a % activity @ 5 μM ([1]; % replication activity of control remaining at 5 μM test compound) [%] |
| --- | --- | --- | --- | --- |
| c1ccc2c(c1)nc(CN1CCCC1)n2CC1CCCNC1 (stereo not drawn) [EBP196] | > 100% | 98% | 63 | – |
| Clc1ccc(Cn2c(CN3CCCCO3)nc3ccccc32)cc1 [EBP481] | 91% | 87% | 93 | – |
| Clc1ccc(Cn2c(CN3CCCCC3)nc3ccccc32)cc1 [EBP133] | >100, >100% | >100, >100% | 86 | – |
| Clc1ccc(Cn2cnc3cc(Cl)c(Cl)cc32)cc1 [EBP211] | 93% | 91% | 69 | – |
| Clc1ccc(Cn2c(CN3CCCC3)nc3ccccc32)s1 [EBP187] | > 100% | 99% | 78 | – |
| CCN(CC)c1c(C)c(C)cc2c1ncn2Cc1ccc(OC)cc1 [EBP307] | 97% | 71% | 48 | – |
| Clc1ccc(Cn2cnc3cc4c(cc32)OCCO4)cc1 [EBP217] | > 100% | 94% | 76 | – |
| CCc1nc2ccccc2n1Cc1ccc(Cl)cc1 [EBP008] | 91% | 82% | 83 | – |
| CS(=O)(=O)c1ccc2c(c1)nc(S)n2Cc1ccccc1 [EBP110] | 98% | 90% | 76 | – |
| C[C@H]1CCCN1Cc1nc2ccc(O)cc2n1Cc1ccc(Cl)cc1 [EBP487] | 93% | 92% | 75 | – |
| CC(=O)N1CCC(Cn2c(CN3CCCC3)nc3ccccc32)CC1 [EBP194] | >100, >100% | >100, >100% | 80 | – |
| O=C(O)C1CCN(Cc2nc3ccccc3n2Cc2ccc(Cl)cc2)C1 (stereo not drawn) [EBP141] | >100, >100% | >100, >100% | 84 | – |
| COc1ccc2nc(CN3CCCC3)n(Cc3ccc(Cl)cc3)c2c1 [EBP482] | 100, 100% | 100, 100% | 77 | – |
| Clc1ccc(Cn2c(-c3cncs3)nc3ccccc32)cc1 [EBP225] | >100, >100% | >100, >100% | 71 | – |
| OC[C@@H]1CCCN1Cc1nc2ccccc2n1Cc1ccc(Cl)cc1 [EBP270] | > 100% | 98% | – | 89 |
| Cc1cc2nc(C=C3CCCCC3)n(Cc3ccc(Cl)cc3)c2cc1C [EBP466] | 100, 100% | 100, 100% | 80 | – |
| O=C(O)c1ccc2ncn(Cc3ccc(Cl)cc3)c2c1 [EBP227] | >100, >100% | >100, >100% | 81 | – |
| Cc1cc2c(ncn2Cc2ccccc2)c(NS(C)(=O)=O)c1C [EBP168] | > 100% | 96% | 87 | – |
| O=C(O)c1ccc(Cn2c(CN3CCCC3)nc3ccccc32)cc1 [EBP153] | >100, >100% | >100, >100% | 84 | – |
| COC(=O)c1ccc(Cn2c(/C=C/c3ccccc3)nc3cc(C)c(C)cc32)cc1 [EBP131] | 94% | 61% | 71 | – |
| Nc1nc2ccccc2n1C(=O)c1ccc(Cl)cc1 [EBP052] | 91% | 82% | 82 | – |
| Cc1cc2c(ncn2Cc2ccc(Cl)cc2)c(NS(=O)(=O)C2CC2)c1C [EBP430] | 98% | 92% | 89 | – |
| OC[C@@H]1CCCN1Cc1nc2ccc(O)cc2n1Cc1ccc(Cl)cc1 [EBP485] | 87% | 78% | 70 | – |
